Laboratory results taken from PubChem BioAssay AID504332 (National Center for Advancing Translational Sciences (NCATS), 2011).
Screen size: about 350,000 compounds; about 31,000 (8.9%) were called active. This list was built around the results that the source calls inconclusive (neither active nor inactive); the mix of calls is not that of the screen. The call rests on the fitted dose curve; in most records, active means well fitted inhibition curve with a large enough effect; inconclusive means small, poorly fitted or top-dose-only effect; inactive means no such curve, though single readings can be large or run the other way. Potencies of inconclusive entries are doubtful fits and often do not repeat.

These compounds were tested against Histone-lysine N-methyltransferase EHMT2 (Homo sapiens) (UniProt Q96KQ7) (assay: qHTS Assay for Inhibitors of Histone Lysine Methyltransferase G9a). Details: G9a H3K9 monomethylation, AlphaScreen, 2 h; activity, negative = inhibition: at 59 µM (top of the series) unless noted.
UniProt Q96KQ7, sequence (Q96KQ7 whole entry, looked up): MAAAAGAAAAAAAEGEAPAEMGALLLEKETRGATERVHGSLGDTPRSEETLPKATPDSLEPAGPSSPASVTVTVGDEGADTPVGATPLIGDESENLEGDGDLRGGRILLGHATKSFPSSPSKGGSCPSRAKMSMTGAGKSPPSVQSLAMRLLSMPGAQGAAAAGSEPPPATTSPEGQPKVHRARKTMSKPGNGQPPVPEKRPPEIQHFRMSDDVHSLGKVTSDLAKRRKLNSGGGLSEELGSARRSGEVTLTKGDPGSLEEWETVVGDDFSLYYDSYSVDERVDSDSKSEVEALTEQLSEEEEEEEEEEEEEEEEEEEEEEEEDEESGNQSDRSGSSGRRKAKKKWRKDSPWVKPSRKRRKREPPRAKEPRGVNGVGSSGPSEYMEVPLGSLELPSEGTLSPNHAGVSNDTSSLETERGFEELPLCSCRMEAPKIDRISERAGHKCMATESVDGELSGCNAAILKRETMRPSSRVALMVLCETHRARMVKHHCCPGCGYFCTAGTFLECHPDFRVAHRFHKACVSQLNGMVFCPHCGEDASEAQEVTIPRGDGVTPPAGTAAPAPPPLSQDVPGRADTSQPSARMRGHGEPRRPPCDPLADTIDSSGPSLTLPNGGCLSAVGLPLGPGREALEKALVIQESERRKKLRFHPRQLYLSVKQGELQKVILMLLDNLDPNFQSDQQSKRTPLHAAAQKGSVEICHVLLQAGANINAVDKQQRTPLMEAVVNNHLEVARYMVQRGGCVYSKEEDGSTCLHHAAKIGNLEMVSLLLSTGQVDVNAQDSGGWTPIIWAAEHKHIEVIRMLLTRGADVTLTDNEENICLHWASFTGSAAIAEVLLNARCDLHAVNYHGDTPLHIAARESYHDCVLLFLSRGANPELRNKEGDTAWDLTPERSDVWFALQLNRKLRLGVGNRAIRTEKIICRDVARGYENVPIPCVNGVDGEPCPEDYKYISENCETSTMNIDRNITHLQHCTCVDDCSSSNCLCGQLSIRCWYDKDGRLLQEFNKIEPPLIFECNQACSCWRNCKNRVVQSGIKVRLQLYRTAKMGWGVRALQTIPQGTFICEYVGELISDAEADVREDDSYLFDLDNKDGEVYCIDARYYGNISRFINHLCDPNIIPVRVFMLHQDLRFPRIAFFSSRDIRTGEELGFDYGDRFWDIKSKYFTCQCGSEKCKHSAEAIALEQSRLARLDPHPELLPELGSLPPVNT
Procedure, shortened: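 AlphaScreen detection with an anti-monomethyl H3K9 antibody quantified product after a 2 h room-temperature reaction containing 500 nM biotinylated H3K9 peptide, 20 µM SAM and 20 nM enzyme, which had been preincubated 15 min with compound.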
Further: nearly all actives have a fitted effect of over 75% in size.
On the % scale 0 is the no-effect control and ±100 the full control effect; potency means the concentration at half of the fitted maximal effect; tags describe the fitted curve by direction and shape.

SMILES	Potency	activity, negative = inhibition
CCOC(=O)C1=C(COC(=O)CNC(=O)c2cccc(C)c2)NC(=O)NC1C (stereo unspecified)	inconclusive: 79.4 µM [inhibitor, partial curve, poor fit]	–
C/C=C/c1ccc(OCC(O)CN2CCCCCCC2)c(OC)c1 (stereo unspecified)	active: 20 µM	–
O=C(CCCCn1c(=O)[nH]c2ccsc2c1=O)NCC1CCCO1 (stereo unspecified)	inconclusive: 28.2 µM [inhibitor, single point]	–
O=C(CCN1C(=O)/C(=C/c2ccc(F)cc2)SC1=S)NCCCn1ccnc1	active: 50.1 µM	–
Cc1cc(O)c(-c2cc(C(=O)NCc3ccc4c(c3)OCO4)[nH]n2)cc1C	inconclusive: 89.1 µM [inhibitor, partial curve, poor fit]	–
O=C(NCC(c1ccco1)N1CCN(c2ccccc2)CC1)C(=O)NC1CC1 (stereo unspecified)	inactive	–
CC(C)N(Cc1ccccc1)C(=O)CN1C(=O)CSc2ccc(S(=O)(=O)N3CCCC3)cc21	inactive	–
O=C(CN1C(=O)C2CC=C(Cl)CC2C1=O)Nc1ccc(C(=O)O)cc1 (stereo unspecified)	active: 12.6 µM	–
Clc1ccc2[nH]c3c(NCCN4CCOCC4)ncnc3c2c1	inconclusive: 25.1 µM [inhibitor, single point]	–
COc1ccc(N2CCN(Cc3nnnn3C3CCCCC3)CC2)cc1	active: 50.1 µM	–
COc1ccc(C(=O)NNc2ccccc2)cc1OC	inconclusive: 7.08 µM [inhibitor, full curve, poor fit]	–
CCN(CC)CCNC(C(=O)OCCC(C)C)c1ccccc1 (stereo unspecified)	inconclusive: 28.2 µM [inhibitor, single point]	–
N#Cc1c[nH]n2c(NC3CCCC3)c(-c3ccc(Cl)cc3)nc12	inconclusive: 39.8 µM [inhibitor, partial curve, poor fit]	–
Nc1ccc(Oc2ccc(F)cc2)nc1	inactive	–
CC(C)CCN1CCN(Cc2nc(-c3ccccc3)cs2)CC1CCO (stereo unspecified)	inactive	–
COC(=O)c1ccc(CNC(=O)CNc2cc(C(F)(F)F)ccc2N2CCOCC2)cc1	inconclusive: 39.8 µM [inhibitor, single point]	–
CN(C(=O)CC1C(=O)NCCN1Cc1ccc(F)c(F)c1)C1CCCCC1 (stereo unspecified)	active: 44.7 µM	–
CCC(C(=O)NC1CCCC1)N(C(=O)Cn1nnc(-c2ccc(C)o2)n1)C(C)(C)C (stereo unspecified)	active: 31.6 µM	–
CNCCCNC(=O)c1ccc(/C=N/O)nc1	inconclusive: 31.6 µM [inhibitor, partial curve, poor fit]	–
Cc1ccc(NS(=O)(=O)c2ccc(-c3cc(C)no3)cc2)c(Br)c1	inconclusive: 6.31 µM [inhibitor, partial curve, poor fit]	–
Cc1ccccc1C(=O)Oc1ccc(Cl)cc1C(=S)N1CCOCC1	inactive	–
O=C(Nc1cccc(-c2ccc(N3CCCCC3)nn2)c1)c1ccco1	active: 50.1 µM	–
COC(=O)c1[nH]c2ccc(F)cc2c1NC(=O)CCN1CCN(Cc2ccc3c(c2)OCO3)CC1	inactive	–
COc1ccc(C2N(c3cc(Cl)ccc3OC)C(=O)C3CCCN32)c(OC)c1 (stereo unspecified)	inconclusive: 79.4 µM [inhibitor, single point]	–

SMILES	Potency	activity, negative = inhibition
Cc1ccc(-n2nnnc2SCC(=O)Nc2ccc(N3CCN(C)CC3)cc2)c(C)c1	active: 50.1 µM	–
C#CCN(C(=O)c1ccc(OC2CCN(C(=O)CCOC)CC2)cc1)C1CCCCC1	inactive	–
C/C(=N/N1CCN(c2ccccn2)CC1)c1cccc([N+](=O)[O-])c1	inconclusive: 12.6 µM [inhibitor, partial curve, poor fit]	–
Cc1nc(CNC(=O)CC2C(=O)NCCN2Cc2ccoc2)nc2c1CCCC2 (stereo unspecified)	inconclusive: 44.7 µM [inhibitor, single point]	–
Cc1ccc(/C=C/C(=O)c2ccc(N3CCOCC3)cc2)s1	inactive	–
O=C(NCc1cnc2ccccn12)C1CCC(=O)N(Cc2cccc(F)c2)C1 (stereo unspecified)	inconclusive: 50.1 µM [inhibitor, partial curve, poor fit]	–
O=c1[nH]c(SCc2ccc([N+](=O)[O-])cc2)nc2c1CCCC2	inconclusive: 39.8 µM [inhibitor, partial curve, poor fit]	–
COc1cccc(OC)c1C(=O)NC(=S)Nc1ccc(S(=O)(=O)Nc2nccs2)cc1	inconclusive: 31.6 µM [inhibitor, partial curve]	–
CNC(=S)N1N=C(c2ccc(C)cc2)CC1c1ccc(OC)c(OC)c1 (stereo unspecified)	inconclusive: 22.4 µM [inhibitor, single point]	–
O=C(CSc1nnc(COc2ccccc2)o1)Nc1cc(C(F)(F)F)ccc1Cl	inconclusive: 3.98 µM [inhibitor, partial curve, poor fit]	–
O=C1N[C@@H](Cc2cnc[nH]2)C(=O)N2CCC[C@@H]12	active: 20 µM	–
CCCCN(C(=O)c1oc2ccc(OCC)cc2c1C)c1c(N)n(CCCC)c(=O)[nH]c1=O	inconclusive: 89.1 µM [inhibitor, partial curve, poor fit]	–
Cc1ccc(NC(=O)c2c(NC(=O)C(F)(F)F)sc3c2CCCCC3)cc1	inconclusive: 31.6 µM [inhibitor, single point]	–
O=C(CSc1nccn1Cc1ccccc1)Nc1ccc2c(c1)OCCO2	inactive	–
COc1cc(C2C(C(=O)c3ccco3)=C(O)C(=O)N2Cc2ccccc2)ccc1O (stereo unspecified)	active: 70.8 µM	–
CC(=O)NC1C(=O)Nc2c1cccc2C(F)(F)F (stereo unspecified)	inconclusive: 39.8 µM [inhibitor, single point]	–
CCOC(=O)c1ccccc1NC(=O)Nc1ccc(OC)c(OC)c1	inconclusive: 0.562 µM [inhibitor, partial curve, poor fit]	–
COc1ccc(NC(=O)Nc2nnc(N(CC(C)C)CC(C)C)s2)c(OC)c1	inconclusive: 39.8 µM [inhibitor, partial curve, poor fit]	–
Cc1cc(O)c(C(C[N+](=O)[O-])c2ccc(Cl)cc2Cl)c(=O)o1 (stereo unspecified)	active: 4.47 µM	–
Cc1ccc2nsnc2c1NC(=O)c1cncc(Br)c1	active: 56.2 µM	–
Cc1ccc(CNC(=O)CCCn2c(=O)c3ccccc3n(CC(=O)C(C)(C)C)c2=O)cc1	inactive	–
OCCC1CN(C/C(Cl)=C/c2ccccc2)CCN1C1CCCC1 (stereo unspecified)	inconclusive: 79.4 µM [inhibitor, partial curve, poor fit]	–
COc1ccccc1NC(=S)NC1CCCCCCCCCCC1	inconclusive: 89.1 µM [inhibitor, single point]	–
CCCOc1ccc(/C(O)=C2/C(=O)C(=O)N(CCCn3ccnc3)C2c2cccs2)cc1 (stereo unspecified)	inconclusive: 31.6 µM [inhibitor, single point]	–

SMILES	Potency	activity, negative = inhibition
CCN(C(=O)COC(=O)c1cc(-c2ccc(C)o2)nc2ccccc12)C1CCS(=O)(=O)C1 (stereo unspecified)	active: 2 µM	–
O=C(c1cccs1)N1CCCC(c2nc3c(nnn3Cc3c(Cl)cccc3Cl)c(=O)[nH]2)C1 (stereo unspecified)	inactive	–
COc1cc(-c2nc(C)c(C(C)=O)n2O)ccc1OCC(=O)Nc1ccc(Cl)cc1	inconclusive: 3.55 µM [inhibitor, single point]	–
Cc1ccnc(N/C=C(\C#N)c2nc(-c3cccc(Br)c3)cs2)c1	inconclusive: 17.8 µM [inhibitor, partial curve, poor fit]	–
O=C(Nc1nccs1)c1ccc(N2C(=O)[C@@H]3[C@H](C2=O)[C@H]2C=C[C@@H]3C2)cc1	inconclusive: 89.1 µM [inhibitor, single point]	–
Cc1ccc(C(=O)NC(C)c2ccc(F)cc2)cc1 (stereo unspecified)	inactive	–
NC(=O)c1c(NC(=O)c2cccnc2)sc2c1CCCC2	inactive	–
COc1cccc(NC(=O)Cn2cc(C(=O)C3CCCCC3)c3ccccc32)c1	inactive	–
Cc1cccc(NC(=O)C(C)SCc2nc3sc4c(c3c(=O)[nH]2)CCCC4)n1 (stereo unspecified)	active: 56.2 µM	–
CC(C)c1ccccc1-n1c(SCC(=O)N2CCc3ccccc3C2)nc2ccccc2c1=O	inconclusive: 22.4 µM [inhibitor, partial curve, poor fit]	–
O=S(=O)(c1ccccc1F)N1CCN(Cc2cc3c(cc2O)OCO3)CC1	inconclusive: 2.82 µM [inhibitor, partial curve, poor fit]	–
CCOc1ccc(N2CC(C(=O)N3CCN(C(=O)c4ccco4)CC3)CC2=O)cc1 (stereo unspecified)	inactive	–
CC(C)c1ccc(/C=c2\sc3nc(-c4ccncc4)nn3c2=O)cc1	inconclusive: 25.1 µM [inhibitor, partial curve, poor fit]	–
CCn1cc(CNC(=O)c2c(-c3c(Cl)cccc3Cl)noc2C)c(C)n1	inconclusive: 0.794 µM [inhibitor, partial curve, poor fit]	–
c1ccc(CNCCC(Cc2ccccc2)c2ccco2)cc1 (stereo unspecified)	–	inconclusive: -51.6% [inhibitor]
O=C(O)c1cccc(N2C(=S)N=C(Nc3ccccc3)C23CCCCC3)c1	inactive	–
COc1cc(/C=N/c2oc(C)c(C)c2C#N)cc(Br)c1O	active: 10 µM	–
COc1ccc(CCN(C)Cc2nc(-c3cnccn3)no2)cc1OC	inconclusive: 39.8 µM [inhibitor, single point]	–
CCN1CCC(N(Cc2cccc(OC)c2)C(=O)Nc2cccc(C(F)(F)F)c2)CC1	inactive	–
Cc1ccc(-c2[nH]ncc2/C=N/n2c(COc3ccccc3)nc3ccccc3c2=O)cc1	inactive	–
CCCCCOC(=O)C1[C@H]2C(=O)N(c3ccccc3CC)C[C@]23C=C[C@H]1O3 (stereo partly specified)	inconclusive: 79.4 µM [inhibitor, single point]	–
Cc1ccc(C2CC2c2n[nH]c(=S)n2-c2ccc(C)cc2)cc1 (stereo unspecified)	active: 0.631 µM	–
CCOC(=O)c1c(NC(=O)c2cc(CC)on2)sc(C)c1C	active: 7.08 µM	–
